Source: PubChem BioAssay AID686979 (National Center for Advancing Translational Sciences (NCATS), 2013)
The whole screen tested about 420,000 compounds, of which about 50,000 (12%) were called active. The inconclusive results got no clear call from the source; some entries with a clear call stand among them for comparison. Calls come from the whole dose curve; as a rule, active = well fitted inhibition curve with a large enough effect; inconclusive = small, poorly fitted or top-dose-only effect; inactive = flat fitted curve, though single readings scatter. Potencies of inconclusive entries are left out as doubtful fits. Where a structure was tested more than once in an assay, its records may differ in their call.

experiment: qHTS for Inhibitors of human tyrosyl-DNA phosphodiesterase 1 (TDP1): qHTS in cells in presence of CPT; settings: chicken DT40 Tdp1-/-;hTDP1 cells + 20 nM CPT, ATP luminescence, 48 h; activity change, negative = growth inhibition: at 46.2 µM (top of the series) unless noted; note: nearly all actives have a fitted effect of over 55% in size
Summary of the method: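 Cell growth measured by CellTiter-Glo luminescence after a minimum 48 h, 37 C compound exposure with 20 nM CPT in Tdp1-knockout DT40 cells stably expressing hTDP1, seeded 400/well; qHTS titration format.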
% is set by controls: 0 for no effect and ±100 for the full control effect; potency is the fitted concentration of half-maximal effect; tags give direction and shape of the fitted curve.

| Compound | Potency | activity change, negative = growth inhibition |
| --- | --- | --- |
| Nc1[nH]c(C(=O)c2ccccc2)c(-c2c(F)cccc2F)c1C(=O)c1ccc(Cl)c(Cl)c1 | inconclusive [inhibitor, single point] | – |
| O=C(CSc1nc2cc(Cl)ccc2s1)N1CCN(C(=O)c2ccco2)CC1 | inconclusive [inhibitor, single point] | – |
| C[C@@H]1CC=C[C@H]2[C@H]1C(=O)N(Cc1ccccc1)[C@H]2c1cccc([N+](=O)[O-])c1 | active: 20.6 µM | – |
| Cc1nc(SC(C(=O)c2ccccc2)c2ccccc2)nc2ccccc12 (configuration not stated) | inconclusive [inhibitor, single point] | – |
| Cc1ccc(NCC(=O)N/N=C/c2ccc(OC(=O)c3ccco3)cc2)cc1 | inconclusive [inhibitor, partial curve] | – |
| COc1ccc(CN2C(=O)c3cccnc3C2Nc2ccc(OC)c(Cl)c2)cc1 (configuration not stated) | inactive | – |
| N#CCC(=O)NCC1(c2ccccc2)CCCC1 | inactive | – |
| Cc1ccc(N(CC(=O)NC2CCCCC2)S(=O)(=O)c2cccs2)cc1 | inactive | – |
| COc1cc(C(C)=O)ccc1Oc1ncnc2c1cnn2-c1ccccc1 | inconclusive [inhibitor, single point] | – |
| COc1cc(NC(=O)COC(=O)CO/N=C(\C)c2ccc3c(c2)OCO3)cc(OC)c1 | inactive | – |
| COc1ccc(CNC(=O)C2(C)Cc3c(-c4ccc5c(c4)OCO5)ccnc3O2)cc1OC (configuration not stated) | inconclusive [inhibitor, single point] | – |
| CC(C)(C)N/N=C/c1cc(Cl)cc([N+](=O)[O-])c1O | inconclusive [inhibitor, single point] | – |
| O=C1CC(c2ccccc2)CC2=C1C(c1ccccn1)Nc1ccccc1N2 (configuration not stated) | inactive | – |
| COc1ccc(NC(=O)c2ccc(CNS(=O)(=O)c3ccc4c(c3)C(C)(C)C(=O)N4C)cc2)cc1 | inconclusive [inhibitor, partial curve] | – |
| CCSc1nc2sc3c(c2c(=O)n1C1CCCCC1)CCN(C)C3 | active: 16.4 µM | – |
| CSc1ccc(Cn2c(C)c(C(=O)NCc3ccccc3C(F)(F)F)sc2=O)cc1 | inconclusive [inhibitor, single point] | – |
| CCc1ccc(-c2nn(Cc3ccccc3)cc2C(=O)NCC2CCCO2)cc1 (configuration not stated) | inconclusive [inhibitor, single point] | – |
| Cc1c(C)n(Cc2ccccc2)c2ccc(C(=O)NCCc3ccccc3Cl)cc12 | active: 20.6 µM | – |
| COc1ccc([N+](=O)[O-])cc1NCC(=O)Nc1cc(S(=O)(=O)N2CCCCC2)ccc1C | active: 14.6 µM | – |
| C=C1CCN([C@H](C(=O)Nc2ccc(OC)cc2)C(C)C)S(=O)(=O)c2ccccc21 | inactive | – |
| COc1cccc(CNC(=O)C2CCCN(c3ncnc4onc(-c5ccc(F)cc5)c34)C2)c1 (configuration not stated) | inconclusive [inhibitor, single point] | – |
| Cc1ccccc1CCNC(=O)C1CCN(S(=O)(=O)c2ccc(-n3cnnn3)cc2)CC1 | inconclusive [inhibitor, single point] | – |
| COCC1=C(C(=O)OC(C)OC(=O)OC(C)C)N2C(=O)[C@@H](NC(=O)/C(=N\OC)c3csc(N)n3)[C@H]2SC1 (some centres not stated) | active: 3.35 µM | – |

| Compound | Potency | activity change, negative = growth inhibition |
| --- | --- | --- |
| COc1cccc(-n2c(=O)c3c(C)c(C(=O)N(C)C)sc3n(CC(=O)Nc3ccc(C)cc3Cl)c2=O)c1 | inconclusive [inhibitor, single point] | – |
| CC(C)Oc1ccc(CNC(=O)CCn2c(=O)c3cccn3c3ccc(F)cc32)cc1 | inconclusive [inhibitor, single point] | – |
| O=C(Nc1ccc2c(c1)N(C1CCCC1)C(=O)c1ccccc1S2)c1cccc(F)c1 | inconclusive [inhibitor, single point] | – |
| CCCNC(=O)C1(C)CCN1C(=O)Cc1ccc(C(C)(C)C)cc1 (configuration not stated) | inconclusive [inhibitor, partial curve, poor fit] | – |
| O=C1CC(c2nc(-c3cccc(Cl)c3)no2)CN1c1ccc2c(c1)OCCO2 (configuration not stated) | inactive | – |
| COc1ccc2[nH]c(=O)c(CN(Cc3ccccc3)Cc3nnnn3CC3CCCO3)cc2c1 (configuration not stated) | inconclusive [inhibitor, partial curve] | – |
| CC(C)c1ccc2c(c1)C1(NN=C(c3ccccc3)S1)C(=O)N2 (configuration not stated) | active: 3.66 µM | – |
| CCCCCN(C(=O)CCC(=O)OCc1cccc(Br)c1)c1c(N)n(CCCC)c(=O)[nH]c1=O | inconclusive [inhibitor, partial curve, poor fit] | – |
| CC(=O)c1c(NC(=O)c2ccccc2)[nH]c(-c2ccccc2)nc1=S | inconclusive [inhibitor, single point] | – |
| COc1ccc(/C=N/n2cncn2)cc1Cn1nc(C)c([N+](=O)[O-])c1C | inactive | – |
| O=C(NCCc1csc(-c2cccc(F)c2)n1)c1ccc(Br)o1 | inconclusive [inhibitor, single point] | – |
| N=c1n(CCO)c2ccccc2n1CCN1CCCCC1 | inactive | – |
| CCN1C[C@@H]2[C@@H]3C(=O)N(Cc4ccccc4)C(=O)[C@@H]3[C@](Cc3ccccc3)(C1=O)N2C(=O)c1ccc(C)cc1 | inactive | – |
| CC(C)(C)c1ccc(C(=O)Nc2cccnc2)cc1 | inconclusive [inhibitor, partial curve, poor fit] | – |
| Cc1n[nH]c(C)c1S(=O)(=O)N(CC(=O)NCc1ccccc1Cl)c1ccc(C(C)C)cc1 | inconclusive [inhibitor, single point] | – |
| N#C/C(=C\Nc1ccc2cn[nH]c2c1)c1nc(-c2ccccc2)cs1 | inconclusive [inhibitor, single point] | – |
| CCOc1ccc(C(=O)NCC(=O)OCC(=O)NC2CCCC2)cc1 | inactive | – |
| COc1c(N2CCN(C(=S)NCc3ccccc3)C(C)C2)c(F)cc2c(=O)c(C(=O)O)cn(C3CC3)c12 (configuration not stated) | inconclusive [inhibitor, single point] | – |
| COc1ccc2[nH]cc(C(=O)CNc3nc(C)cs3)c2c1 | inconclusive [inhibitor, single point] | – |
| Clc1ccc(-c2cn3c(n2)CCC3)cc1 | inconclusive [inhibitor, single point] | – |
| CCOC(=O)c1c(C)c(C(=O)N2CCN(c3cccc(Cl)c3)CC2)c(C)n1C | inconclusive [inhibitor, single point] | – |
| CCN(C(=O)Cn1c(=O)oc2cc(S(=O)(=O)N3CCCC3)ccc21)c1cccc(C)c1 | inconclusive [inhibitor, single point] | – |
| CC1(C)CC(=O)c2cnc(N)nc2C1 | inconclusive [inhibitor, single point] | – |

| Compound | Potency | activity change, negative = growth inhibition |
| --- | --- | --- |
| SCc1nc2ccccc2[nH]1 | inconclusive [inhibitor, single point] | – |
| N=c1sccn1CC(=O)N1N=C(c2ccc(Cl)cc2)CC1c1ccco1 (configuration not stated) | inconclusive [inhibitor, single point] | – |
| CC(=O)Nc1cccc(C(=O)OCN2C(=O)c3ccccc3C2=O)c1 | inactive | – |
| CCOc1ccccc1CNC(=O)CCc1cn(Cc2ccc(Cl)cc2)c2ccccc12 | active: 18.4 µM | – |
| COc1ccccc1C(=O)NNC(=O)C(=O)Nc1ccc(C)c(Cl)c1 | inconclusive [inhibitor, single point] | – |
| CC(NC(=O)c1cc(-c2ccc(Br)cc2)on1)c1ccccc1 (configuration not stated) | inconclusive [inhibitor, partial curve] | – |
| O=C(CSc1ccccc1F)NCC1(N2CCCCC2)CCCCC1 | – | inconclusive: -2.69% [inhibitor] |
| CC(=O)Nc1ccc(NC(=O)CCc2nc3sc4c(c3c(=O)[nH]2)CCCC4)cc1 | inactive | – |
| COc1ncc(-c2ccc3c(c2)S(=O)(=O)c2cccc(C(=O)O)c2C3=O)cn1 | inactive | – |
| C[C@H]1CN([C@@H](C)CO)C(=O)CCCn2nncc2CO[C@H]1CN(C)S(=O)(=O)c1ccc(F)cc1 | inactive | – |
| Cc1ccc(NC(=O)CN2C(=O)COc3ccc(S(=O)(=O)N4CCCCCC4)cc32)cc1C | inconclusive [inhibitor, single point] | – |
| COc1ccc(CCNCC(=O)Nc2ccc(C)c(S(=O)(=O)N(C)C)c2)cc1 | inactive | – |
| CC1CCC(C(C)C)C(OC(=O)C[n+]2cc(-c3ccc(Cl)cc3)n3c2CCC3)C1 (configuration not stated) | active: 2.91 µM | – |
| O=C(CNC(=O)c1ccc(Br)o1)Nc1cccc(-c2cnc3ccccc3n2)c1 | inconclusive [inhibitor, partial curve, poor fit] | – |
| Cc1cc(C)cc(NC(=O)CN(C)S(=O)(=O)c2ccc3[nH]c4c(c3c2)CCCC4)c1 | inconclusive [inhibitor, single point] | – |
| COc1ccccc1CNC(=O)C(C)n1nc(C)n2c(cc3occc32)c1=O (configuration not stated) | inconclusive [inhibitor, partial curve, poor fit] | – |
| CCc1ccc(C2CC(c3ccc(C)cc3)Nc3nc(N)nn32)cc1 (configuration not stated) | inconclusive [inhibitor, single point] | – |
| CC(C)OCCCNC(=O)C1CCC(CNS(=O)(=O)c2ccc(Cl)cc2)CC1 (configuration not stated) | inactive | – |
| CCCc1nc2ccccc2c(=O)n1/N=C/c1c(C)[nH]n(-c2ccc(C)cc2)c1=O | active: 20.6 µM | – |
| CCOc1ccc(CCNC(=O)c2c(C)oc3ncnc(N4CCOCC4)c23)cc1 | inconclusive [inhibitor, single point] | – |
| COc1ccc(C(=O)Nc2ccc(OCc3cc(=O)n4ccccc4n3)cc2)cc1 | inactive | – |
